From PubChem BioAssay AID1460 (National Center for Advancing Translational Sciences (NCATS), 2008)
Values joined by “and” are separate entries in the source; they are usually repeats but may differ in a detail not shown here. Equal values may be shown once. The campaign covered roughly 270,000 compounds. About 5,800 (2.1%) were called active. The shares of active, inactive and inconclusive entries below differ from those in the screen. Calls come from the whole dose curve; as a rule, active = well fitted inhibition curve with a large enough effect; inconclusive = small, poorly fitted or top-dose-only effect; inactive = flat fitted curve, though single readings scatter. Potencies beside an inconclusive call are fits to weak or partial responses and may not hold up.

target: Microtubule-associated protein tau (Homo sapiens) (UniProt P10636); experiment: qHTS for Inhibitors of Tau Fibril Formation, Thioflavin T Binding; conditions: recombinant tau K18 P301L (four-repeat tau fragment), heparin-induced fibrillization, ThT fluorescence; series mostly up to 57.4 µM; activity, negative = inhibition: at the top concentration; note: nearly all actives have a fitted effect of over 55% in size
Summary of the method: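 Aggregation was driven by heparin (20 uM final) acting on recombinant tau […] bearing P301L in 100 mM sodium acetate pH 7; fibrils were detected with Thioflavin T.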
% is set by controls: 0 for no effect and ±100 for the full control effect; potency is the fitted concentration of half-maximal effect; tags give direction and shape of the fitted curve.

UniProt P10636, sequence (P10636 whole entry, looked up, the tested form may be a part): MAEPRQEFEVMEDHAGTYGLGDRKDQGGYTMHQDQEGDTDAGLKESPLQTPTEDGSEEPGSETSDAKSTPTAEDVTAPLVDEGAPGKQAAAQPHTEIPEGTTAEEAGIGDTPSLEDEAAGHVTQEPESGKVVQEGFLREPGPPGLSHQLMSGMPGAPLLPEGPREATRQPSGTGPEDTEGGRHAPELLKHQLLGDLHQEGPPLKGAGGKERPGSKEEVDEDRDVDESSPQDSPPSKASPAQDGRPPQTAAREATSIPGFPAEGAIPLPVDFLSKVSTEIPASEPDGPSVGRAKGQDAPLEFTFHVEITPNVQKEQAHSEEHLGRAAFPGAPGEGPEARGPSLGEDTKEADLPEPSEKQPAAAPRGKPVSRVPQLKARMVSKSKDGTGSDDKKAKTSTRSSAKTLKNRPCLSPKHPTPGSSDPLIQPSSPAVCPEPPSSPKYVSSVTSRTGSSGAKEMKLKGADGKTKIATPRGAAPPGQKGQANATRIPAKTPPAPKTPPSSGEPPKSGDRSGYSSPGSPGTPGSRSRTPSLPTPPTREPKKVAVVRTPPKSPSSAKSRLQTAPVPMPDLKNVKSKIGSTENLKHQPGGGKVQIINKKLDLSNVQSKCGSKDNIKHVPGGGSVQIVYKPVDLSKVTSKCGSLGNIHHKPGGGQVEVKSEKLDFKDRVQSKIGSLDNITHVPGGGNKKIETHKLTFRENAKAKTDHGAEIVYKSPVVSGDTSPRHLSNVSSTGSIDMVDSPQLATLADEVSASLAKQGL

With `Cc1ccc(-n2nc(CO)c(C(=O)NCCCCc3ccccc3)n2)cc1C` as the compound, how does the “activity, negative = inhibition” value read?
Its value is inactive: -0.957%.

With `Cc1c(Br)cc(C(=O)NCc2ccco2)c(C)c1C` as the compound, how does the Potency read?
Its Potency is inconclusive: 39.8 µM [inhibitor, partial curve].

For `Cc1nc2cccnc2n1-c1cccc(C(=O)N2CCN(c3cccc(Cl)c3)CC2)c1`, which “activity, negative = inhibition” value is on record?
Its value is inactive: -11.6%.

For `Cc1ccc(C(=O)NC(=S)Nc2ccccc2C)cc1`, which “activity, negative = inhibition” value is on record?
Its value is inactive: 1.33%.

Which Potency does the source give for `O=C1/C(=C/c2ccncc2)CCC/C1=C\c1ccncc1` here?
Its Potency is active: 5.01 µM.

How did the Potency turn out when `CC1=NN(c2nc(-c3ccc(C)cc3)cs2)C(=O)C1N=Nc1ccc2ccccc2c1` (stereo not drawn) was run?
The Potency was active: 1.41 µM.

With `Cc1ccc(CCNC(c2ccc(F)cc2)c2nnc(-c3ccccc3Cl)o2)cc1` (stereo not drawn) as the compound, how does the “activity, negative = inhibition” value read?
The value was inactive: -15.3%.

`O=C(CN1CCOCC1)Nc1ccc2c(c1)OCO2` was tested. Which “activity, negative = inhibition” value did it give?
Its value is inactive: -0.207%.

With `Cc1ccc2nc3c(c(N)c2c1)CCN3c1ccccc1` as the compound, how does the Potency read?
Its Potency is inconclusive: 15.8 µM [inhibitor, partial curve].

Which Potency does the source give for `c1ccc2c(c1)CCN(c1nc3ccccc3n3cnnc13)C2` here?
The Potency was inconclusive: 35.5 µM [inhibitor, partial curve].

With `O=S(=O)(c1ccc2nc(COc3ccccc3)[nH]c2c1)N1CCOCC1` as the compound, how does the “activity, negative = inhibition” value read?
Its value is inactive: -1%.

For `COc1cc(C(=O)N2CCN(C(=O)COc3ccc4ccccc4c3)CC2)cc(OC)c1OC`, which “activity, negative = inhibition” value is on record?
The value was inactive: -2.76%.

`Cc1c(-c2nnc(SCC(=O)Nc3ccccc3F)o2)nnn1-c1ccc(F)cc1` was tested. Which Potency did it give?
Its Potency is inconclusive: 14.1 µM [inhibitor, single point].

For `O=C1c2nc3cc(-c4ccco4)[nH]n3c(=O)c2CN1C1CCCCC1`, which Potency is on record?
Its Potency is inconclusive: 12.6 µM [inhibitor, partial curve].

`CCn1c(=O)cc(OCC(=O)N(C)C2CCCCC2)c2ccccc21` was tested. Which “activity, negative = inhibition” value did it give?
The value was inactive: -13%.

Which Potency does the source give for `COc1ccc(-n2nc3c(N4CCCC(C(=O)NCc5ccc(C)cc5)C4)nnc(C)c3c2C)cc1` (stereo not drawn) here?
Its Potency is inconclusive: 15.8 µM [inhibitor, partial curve].

Which Potency does the source give for `O=C(c1cc2c(s1)CCCC2)N1CCN(Cc2ccc3c(c2)OCO3)CC1` here?
Its Potency is inconclusive: 22.4 µM [inhibitor, partial curve, poor fit].

Which Potency does the source give for `Cc1ccc(N=Nc2c(N)[nH]n3c(=O)cc(C)nc23)cc1` here?
Its Potency is active: 3.98 µM.

With `Cc1cc2n(c1)CCn1c(C)ccc1-2` as the compound, how does the Potency read?
The Potency was inconclusive: 28.2 µM [inhibitor, partial curve].

For `CCC(C)NC(=S)NNC(=O)c1ccncc1` (stereo not drawn), which “activity, negative = inhibition” value is on record?
Its value is inactive: 1.83%.

For `Oc1[nH]c2ccccc2c1C=Nc1ccc2c(c1)OCCO2`, which Potency is on record?
The Potency was active: 11.2 µM.

How did the “activity, negative = inhibition” value turn out when `CC(C)OCCCNC(=O)c1sc(=S)n(C)c1N` was run?
Its value is inactive: -12%.

With `O=C1OC(c2cccs2)=N/C1=C/c1ccc(-c2cccc(C(=O)O)c2)o1` as the compound, how does the Potency read?
The Potency was inconclusive: 14.1 µM [inhibitor, partial curve].

With `O=C(Nc1ccc2oc(=O)ccc2c1)c1ccc(-c2ccccc2[N+](=O)[O-])o1` as the compound, how does the Potency read?
Its Potency is inconclusive: 5.01 µM [inhibitor, partial curve, poor fit].

How did the “activity, negative = inhibition” value turn out when `COc1ccc(S(=O)(=O)N2CCC[C@H]2C(=O)NC2=NCCS2)cc1` was run?
The value was inactive: -7.75%.

`COc1ccc(NC(=O)c2ccco2)cc1S(=O)(=O)N1CCOCC1` was tested. Which “activity, negative = inhibition” value did it give?
Its value is inactive: 4.59%.

How did the Potency turn out when `O=C(Nc1ccc(Oc2ccc(NC(=O)Nc3ccc([N+](=O)[O-])cc3)cc2)cc1)Nc1ccc([N+](=O)[O-])cc1` was run?
Its Potency is active: 6.31 µM.

How did the Potency turn out when `Oc1c(C=C2N=c3ccccc3=N2)sc(=S)n1-c1ccc(F)cc1` was run?
Its Potency is inconclusive: 8.91 µM [inhibitor, partial curve] and inconclusive: 1.78 µM [inhibitor, full curve].

Which Potency does the source give for `Cc1nnc(C)c2c(C)n(-c3ccc4ncccc4c3)c(C)c12` here?
The Potency was inconclusive: 35.5 µM [inhibitor, single point].

For `Cc1nn(-c2ccccc2)c(N)c1N=Nc1ccccc1`, which Potency is on record?
Its Potency is active: 8.91 µM.

Which Potency does the source give for `COc1cccc2cc(-c3csc(CCn4nc(C)cc4C)n3)c(=O)oc12` here?
The Potency was inconclusive: 14.1 µM [inhibitor, partial curve].

With `CCCCCCC1(C)NC(=S)N(c2ccccc2)N1` (stereo not drawn) as the compound, how does the Potency read?
The Potency was inconclusive: 31.6 µM [inhibitor, single point].

`COc1ccc(C(=O)CSc2nnc(CNc3nc(-c4ccccc4)cs3)n2C)cc1` was tested. Which Potency did it give?
Its Potency is inconclusive: 14.1 µM [inhibitor, partial curve].

For `O=C(CSc1ccccn1)N1CCN(c2cccc(Cl)c2)CC1`, which Potency is on record?
Its Potency is inconclusive: 31.6 µM [inhibitor, single point].

`O=C1NC(=S)N/C1=C\c1cccc([N+](=O)[O-])c1` was tested. Which Potency did it give?
The Potency was inconclusive: 28.2 µM [inhibitor, single point].

`Cn1cccc1CC(=O)N/N=C/C=C/c1ccco1` was tested. Which “activity, negative = inhibition” value did it give?
The value was inactive: -10.4%.

With `CC(C)CO/N=C1/[C@H]2O[C@@H]2[C@@H](O)[C@H]2[C@H]1CCn1c(=O)n(C)c(=O)n12` as the compound, how does the activity, negative = inhibition read?
The activity, negative = inhibition was inactive: -11.1% [at 11.5 µM].

With `S=C(NCc1ccco1)Nc1ccc2c(c1)OCCO2` as the compound, how does the Potency read?
Its Potency is inconclusive: 28.2 µM [inhibitor, single point].

For `C=CCOc1ccc(Br)cc1/C=C1/SC(=Nc2ccc(C(=O)O)cc2)NC1=O`, which Potency is on record?
Its Potency is inconclusive: 25.1 µM [inhibitor, partial curve].

How did the “activity, negative = inhibition” value turn out when `COC(=O)c1cc(OC)c(OC)c(OC)c1[N+](=O)[O-]` was run?
Its value is inactive: -7.89%.

For `CCn1c(C(=O)N2CCC(C(=O)N3CCN(c4cc(C)ccc4C)CC3)CC2)cc2sccc21`, which Potency is on record?
Its Potency is inconclusive: 14.1 µM [inhibitor, partial curve].

Which Potency does the source give for `COc1ccc(CNC(=O)c2ccc3nc(CCc4ccccc4)oc3c2)cc1OC` here?
Its Potency is inconclusive: 0.355 µM [inhibitor, full curve].

`Oc1ccc(Br)cc1-c1cc(-c2ccc(Cl)cc2)n[nH]1` was tested. Which Potency did it give?
Its Potency is inconclusive: 25.1 µM [inhibitor, partial curve, poor fit].

How did the Potency turn out when `CCn1c(C)nc2cc(C(=O)N/N=C/c3cccc(OC)c3O)ccc21` was run?
The Potency was inconclusive: 10 µM [inhibitor, partial curve].

`COc1ccc(C2c3[nH]c4ccccc4c3CCN2CCCn2cccn2)c(C)c1C` (stereo not drawn) was tested. Which Potency did it give?
The Potency was inconclusive: 44.7 µM [inhibitor, partial curve, poor fit].

Which “activity, negative = inhibition” value does the source give for `c1ccc2nc3c(nc2c1)sc1nc2ccccc2n13` here?
The value was inactive: 5.27%.

Which Potency does the source give for `COc1cc2cc3c4c(cc(OC)c(OC)c4c2cc1OC)CCN3C` here?
Its Potency is active: 10 µM.

With `CC(=O)Oc1ccc(C(=O)Cc2ccc3ccccc3n2)c(O)c1C` as the compound, how does the Potency read?
The Potency was active: 1.41 µM.

How did the “activity, negative = inhibition” value turn out when `COc1ccc(NC(=S)NNC(=O)COc2ccc(Cl)cc2Cl)cc1` was run?
Its value is inactive: 6.1%.

`CSc1nc(C)c2c(n1)N(c1ccc(O)cc1)CC2` was tested. Which Potency did it give?
The Potency was inconclusive: 28.2 µM [inhibitor, single point].

Which Potency does the source give for `Cc1cc(C(=O)N2CCCC(C(=O)c3cc(F)ccc3F)C2)c(C)o1` (stereo not drawn) here?
Its Potency is inconclusive: 14.1 µM [inhibitor, partial curve].

For `CC1=CC(C)C2COC(c3ccc[n+](C)c3)C1C2C` (stereo not drawn), which “activity, negative = inhibition” value is on record?
The value was inactive: -1.61%.

With `Cc1cccc(C(=O)NNC(=O)c2ccc(Br)cc2)c1` as the compound, how does the “activity, negative = inhibition” value read?
Its value is inactive: -2.59%.

How did the Potency turn out when `CC(=O)Oc1oc(-c2ccccc2)nc1C=Nc1ccccc1` was run?
Its Potency is inconclusive: 28.2 µM [inhibitor, partial curve].

Which Potency does the source give for `CC(=O)Nc1ccc(C(=O)OCC(=O)c2cccc([N+](=O)[O-])c2)cc1` here?
The Potency was inconclusive: 3.98 µM [inhibitor, partial curve].

For `COc1ccccc1NCC(=O)N/N=C/c1sccc1C`, which Potency is on record?
Its Potency is inconclusive: 0.0251 µM [activator, full curve, poor fit].

For `CCc1c(C)sc(NC(=O)CSc2nc3c(c(C(F)(F)F)n2)CCc2ccccc2-3)c1C#N`, which “activity, negative = inhibition” value is on record?
The value was inactive: 2.36%.

How did the Potency turn out when `CCC(=O)N1CCN(c2ccc(NC(=O)c3cccs3)cc2)CC1` was run?
Its Potency is inconclusive: 7.08 µM [inhibitor, partial curve].

Which “activity, negative = inhibition” value does the source give for `CCOC(=O)N1CCN(C(=O)C2CCN(CC3CCCCC3)CC2)CC1` here?
The value was inactive: -3.89%.

`C=CS(=O)(=O)c1ccc(Oc2ccc(S(=O)(=O)C=C)cc2)cc1` was tested. Which Potency did it give?
The Potency was active: 2 µM.

Which Potency does the source give for `COc1ccc(C(=O)N/N=c2\oc3ccccc3cc2C(N)=O)cc1` here?
The Potency was inconclusive: 11.2 µM [inhibitor, partial curve].

`CCC[n+]1c(C)sc2c(OC)ccc(OC)c21` was tested. Which Potency did it give?
The Potency was active: 35.5 µM.

How did the “activity, negative = inhibition” value turn out when `O=C1c2cccc(OCC(=O)N3CCCc4ccccc43)c2CCN1Cc1ccc(Br)cc1` was run?
Its value is inactive: -13.7%.

For `c1ccc(OCc2nc(-c3cccs3)no2)cc1`, which Potency is on record?
Its Potency is inconclusive: 20 µM [inhibitor, partial curve].

For `CCOC(=O)N1CCC(N2CCN(S(=O)(=O)c3ccc(NC(C)=O)cc3)CC2)CC1`, which “activity, negative = inhibition” value is on record?
The value was inactive: -3.44%.

With `N#C/C(=C/c1ccc(Sc2nc3ccccc3[nH]2)o1)c1cccc(Br)c1` as the compound, how does the Potency read?
Its Potency is inconclusive: 5.01 µM [inhibitor, full curve].

Which Potency does the source give for `CCOc1ccc2nc(NC(=O)C3CCCN(S(=O)(=O)c4c(C)noc4C)C3)sc2c1` (stereo not drawn) here?
Its Potency is inconclusive: 3.55 µM [inhibitor, single point].

How did the Potency turn out when `COC(=O)[C@@]1(Cc2ccc(OC)cc2)[C@H]2c3cc(C(=O)N4CCCC4)n(Cc4ccc(OC)c(OC)c4)c3C[C@H]2CN1C(=O)c1ccccc1` was run?
The Potency was inconclusive: 35.5 µM [inhibitor, single point] and inconclusive: 22.4 µM [inhibitor, partial curve, poor fit].

With `CCC(=O)Nc1c2c(nn1-c1ccccc1C)CSC2` as the compound, how does the Potency read?
The Potency was inconclusive: 20 µM [inhibitor, single point].

`CNC(=S)N/N=C(\C)c1ccc2c(c1)OCCO2` was tested. Which “activity, negative = inhibition” value did it give?
Its value is inactive: -7.63%.

How did the Potency turn out when `CCc1nn(CCCC(=O)N2CCN(c3cc(Cl)ccc3C)CC2)c(=O)c2cc3occc3n12` was run?
The Potency was inconclusive: 12.6 µM [inhibitor, partial curve].

For `Cc1ccc(OCC(=O)N/N=C/c2cccn2C)cc1`, which Potency is on record?
The Potency was inconclusive: 39.8 µM [inhibitor, single point].

How did the “activity, negative = inhibition” value turn out when `CCOC(=O)C(=N/O)/C(C)=N/NC(C)=O` was run?
The value was inactive: -7.04%.
